SMILES strings stand for the structures. Hit rate of the full screen: of about 310,000 compounds, about 2,200 (0.71%) showed an effect of 50% or more. Effects have a minus sign here. This is one part of the list.

The target in this assay is human ether-à-go-go-related gene (hERG) potassium channel (human, UniProt Q12809). In words: primary screen, population patch clamp on CHO cells stably expressing hERG.
Chain of human ether-à-go-go-related gene (hERG) potassium channel (Q12809 whole entry, looked up): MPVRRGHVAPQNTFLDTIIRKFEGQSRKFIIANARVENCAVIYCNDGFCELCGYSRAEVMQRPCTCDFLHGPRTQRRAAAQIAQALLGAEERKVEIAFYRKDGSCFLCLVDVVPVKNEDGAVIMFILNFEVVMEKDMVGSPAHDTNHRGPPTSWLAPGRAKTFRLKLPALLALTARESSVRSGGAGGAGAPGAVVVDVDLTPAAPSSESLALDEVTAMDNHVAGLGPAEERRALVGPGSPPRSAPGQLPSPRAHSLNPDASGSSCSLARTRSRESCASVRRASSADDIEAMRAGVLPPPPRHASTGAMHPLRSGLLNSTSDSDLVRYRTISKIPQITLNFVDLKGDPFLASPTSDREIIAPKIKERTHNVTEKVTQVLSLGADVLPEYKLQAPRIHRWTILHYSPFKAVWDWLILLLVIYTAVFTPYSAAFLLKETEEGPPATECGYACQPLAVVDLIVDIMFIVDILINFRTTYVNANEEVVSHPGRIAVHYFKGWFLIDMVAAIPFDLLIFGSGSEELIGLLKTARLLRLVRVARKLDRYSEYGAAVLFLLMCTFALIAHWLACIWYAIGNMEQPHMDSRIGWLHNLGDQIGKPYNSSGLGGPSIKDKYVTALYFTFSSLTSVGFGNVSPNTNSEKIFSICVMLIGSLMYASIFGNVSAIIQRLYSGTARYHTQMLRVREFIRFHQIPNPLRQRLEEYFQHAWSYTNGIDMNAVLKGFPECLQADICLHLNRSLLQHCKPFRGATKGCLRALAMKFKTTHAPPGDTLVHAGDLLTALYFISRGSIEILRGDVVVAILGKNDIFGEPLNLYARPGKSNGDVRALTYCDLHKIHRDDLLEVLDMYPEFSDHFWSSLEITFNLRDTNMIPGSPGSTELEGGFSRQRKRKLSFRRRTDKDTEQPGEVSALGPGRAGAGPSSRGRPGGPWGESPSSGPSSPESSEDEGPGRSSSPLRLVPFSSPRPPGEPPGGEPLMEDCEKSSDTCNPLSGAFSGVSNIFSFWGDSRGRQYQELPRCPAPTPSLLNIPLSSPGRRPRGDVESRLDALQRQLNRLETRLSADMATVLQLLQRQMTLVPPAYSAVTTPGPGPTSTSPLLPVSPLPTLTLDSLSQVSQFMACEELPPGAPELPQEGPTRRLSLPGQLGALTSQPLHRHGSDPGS
Consider `O=C(c1cc2ccccc2oc1=O)N(Cc1ccco1)Cc1cccs1`, for which the “hERG current change (%, negative = inhibition) at 1uM” value is reported as -15.3%. As for `COc1ccc(CNC(=O)CSc2n[nH]c(C)c2[N+](=O)[O-])cc1`, the figure is 24.6%. As for `COC(=O)c1ccc(C(=O)OC)c(NC(=O)COC(=O)c2ccccc2OC)c1`, the figure is 1.45%.

On to `CC(C)C[C@H]1CN=C(Nc2ccccc2)N1CC1CCC(C)CC1` (stereo partly shown), for which the “hERG current change (%, negative = inhibition) at 1uM” value is -23.7%. Then `O=C(c1cc(-c2ccc(Br)cc2)on1)N1CCCC1`, with 15.6%; and `Cc1cc(/C=N/NC(=O)c2nn(C)cc2Cl)c(C)n1-c1cccc(Br)c1`, with 5.67%; and `Cc1ccc(S(=O)(=O)CCC(=O)OCC(=O)NCCc2ccc(F)cc2)cc1`, with 3.69%.

Regarding `Cc1ccc(OCCCC(=O)Nc2ccc(S(=O)(=O)Nc3cc(C)nc(C)n3)cc2)cc1`, the “hERG current change (%, negative = inhibition) at 1uM” value was 8.41%. Regarding `COc1cccc(C(=O)n2cnnc2N)c1OC`, the “hERG current change (%, negative = inhibition) at 1uM” value stood at 9.94%.

For the compound `Cc1c(C(=O)NC2CCCc3ccccc32)oc2ccc(S(=O)(=O)N3CCOCC3)cc12` (stereo not shown), the “hERG current change (%, negative = inhibition) at 1uM” value is given as 7.93%. Then `CN(CC(=O)Nc1ccc(F)cc1)C(=O)c1cn(-c2ccccc2)nc1-c1cccs1`, with 5.06%; and `CC1CCc2c(sc3ncn4c(SCC(=O)NCc5ccco5)nnc4c23)C1` (stereo not shown), with 6.8%. As for `O=C(NCc1ccc2c(c1)OCO2)C1Cc2ccccc2CN1C(=O)c1ccco1` (stereo not shown), the figure is -11.6%; as for `CCOC(=O)c1c(NC(=O)CS(=O)(=O)c2cn(CC)c3ccccc23)sc2c1CCCC2`, 8.85%. Then `Clc1ccc(OCc2noc(-c3ccsc3)n2)c(Cl)c1`, with 24.7%; and `C#CCN[C@H](C)Cc1ccccc1.Cl`, with 14.3%; and `CN1CC(=O)Nc2ccc(F)cc2C1=O`, with 11.1%. Consider `OCCNc1nc(Nc2ccccc2O)nc(N2CCCC2)n1`, for which the “hERG current change (%, negative = inhibition) at 1uM” value was found to be 6.49%. In the case of `COCCn1c(-c2ccccc2)nc(=S)c2c1CC(C)(C)OC2`, the “hERG current change (%, negative = inhibition) at 1uM” value is listed as -8.98%. Then `C=CCNc1nnc(SCC(=O)N2CCC(C(N)=O)CC2)s1`, with -12%. As for `COc1cc(NS(=O)(=O)c2ccc(Cl)cc2)c(C(=O)O)cc1OC`, the figure is 0.636%; as for `O=C1CCN(Cc2ccc(Br)cc2)CCN1CCO`, 12%. As to `Cc1cc(C)n2nc(SC(C)C(=O)N(C)c3ccccc3)nc2n1` (stereo not shown), the “hERG current change (%, negative = inhibition) at 1uM” value is listed as 15.5%.

`Cc1[nH]c2ccccc2c1C(=O)COC(=O)c1ccc[n+]([O-])c1`: the “hERG current change (%, negative = inhibition) at 1uM” value was determined as 8.84%.

For `Cc1cc(C)c(NC(=O)c2ccc(CNS(=O)(=O)c3cc(C(F)(F)F)ccc3Cl)cc2)c(C)c1`, the “hERG current change (%, negative = inhibition) at 1uM” value stood at 10.5%.

As for `N/C(CS(=O)(=O)c1ccccn1)=N\OC(=O)c1ccc(Cl)cc1`, the “hERG current change (%, negative = inhibition) at 1uM” value was determined as 6%. As for `Cc1cc2c(c(SCC(=O)NCc3ccccc3Cl)n1)C(=O)OC2`, the figure is 6.32%. As to `C[C@@H](NC(=O)c1nc[nH]c1C(=O)N(C)Cc1ccccc1)c1ccccc1`, the “hERG current change (%, negative = inhibition) at 1uM” value is on record as 5.91%. On to `CCOc1cc(C)c(Cl)cc1S(=O)(=O)n1ccnc1`, for which the “hERG current change (%, negative = inhibition) at 1uM” value was 21.2%. As for `COc1cc(S(=O)(=O)N(Cc2ccc(C)cc2)Cc2ccco2)ccc1-n1cnnn1`, the figure is 11.9%; as for `Cc1ccc(NC(=O)Cn2c(=O)oc3ccccc32)cc1`, 13.7%. On to `CCOC(=O)C1=C(N)OC2=C(C(=O)CCC2)C1c1ccco1` (stereo not shown), for which the “hERG current change (%, negative = inhibition) at 1uM” value was found to be 10.2%. As for `CCN(CC(=O)Nc1cccc(OC)c1)c1ncnc2sc(C)c(C)c12`, the figure is 6%; as for `COc1ccc(C)cc1NC(=O)CSc1nnc(-c2ccc(OC)c(OC)c2)n1N`, 5.2%; as for `CC(C)=CCc1cc2c(=O)c3c(O)c4c(cc3oc2c(O)c1O)OC(C)C4(C)C` (stereo not shown), 1.68%. On to `CC(C)[C@H](NC(=O)N1CC(=O)Nc2ccccc21)C(=O)N[C@@H](Cc1c[nH]c2ccccc12)C(=O)O`, for which the “hERG current change (%, negative = inhibition) at 1uM” value was determined as 7.96%.

For the compound `CC(=O)c1c(C)[nH]c(C(=O)NCc2ccccc2F)c1C`, the “hERG current change (%, negative = inhibition) at 1uM” value was 7.02%. As for `CC(C)(C)c1ccc(-n2ncc3c2CCCC3NC(=O)c2cnccn2)cc1` (stereo not shown), the figure is 5.49%; as for `Cc1ccc(Nc2ncnc3c2cnn3C)cc1`, -19%; as for `CC(=O)c1ccc(NC(=O)Cn2c3ccccc3c3nc(=O)cc(C)n32)cc1`, 5.54%. As for `O=C(NCCN1CCC(Cc2ccccc2)CC1)C1CCN(S(=O)(=O)N2CCC3(CC2)OCCO3)CC1`, the figure is 6.01%. Then `Cc1nn(Cc2ccccc2)c(C)c1C(=O)NCCN1C(=O)S/C(=C\c2ccc(F)cc2)C1=O`, with 5.07%; and `Cc1ccc(SCC2=NN(c3nc(C)cc(C)n3)C(=O)C2)cc1`, with 10.4%.
